{
  "source": "PubChem BioAssay AID1347073",
  "about": "(National Center for Advancing Translational Sciences (NCATS), 2019)",
  "note": "In all, about 45,000 compounds went through this assay and about 200 (0.44%) were called active. Roughly 7% stayed inconclusive and do not appear here. Calls follow the shape of the dose curve; as a rule, active = well fitted activation curve with a large enough effect; inconclusive = small, poorly fitted or top-dose-only effect; inactive = no such curve, though single readings can be large or run the other way. The list shows a part of the results.",
  "data": [
    {"test": "qHTS of TDP-43 Inhibitors: NCGC Sytravon Library Screen; also: 0% is about no effect; nearly all actives have a fitted effect of over 55% in size", "conditions": "yeast TDP-43 toxicity rescue, BacTiter-Glo growth, 24 h; series mostly up to 46.1 µM; growth rescue (activation): at the top concentration", "summary_of_the_method": "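TDP-43-expressing yeast, pregrown in raffinose, seeded at OD600 0.02 in galactose medium with compound for 24 hr at 30 deg C. Growth read by BacTiter-Glo luminescence, so rescue of toxicity appears as activation.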", "values": [
      {"smiles": "OCC1(Cc2ccccc2)CCCN(Cc2c[nH]c3ccccc23)C1", "note": "(stereo not given)", "growth rescue (activation)": "inactive: 11.8%"},
      {"smiles": "Cc1ccc(-c2cc(C(=O)NCCCN3CCCC3)c3ccccc3n2)cc1C", "growth rescue (activation)": "inactive: -11.1%"},
      {"smiles": "CC1SC(c2ccc(F)cc2)NC1=O", "note": "(stereo not given)", "growth rescue (activation)": "inactive: 6.92%"},
      {"smiles": "CC(C)c1ccc(NC(=O)CCCN2C(=S)NC(C)(C)CC2C)cc1", "note": "(stereo not given)", "growth rescue (activation)": "inactive: 26%"},
      {"smiles": "C=CCOn1c(-n2nc(C)cc2C)nc2ccccc2c1=O", "growth rescue (activation)": "inactive: -6.02%"},
      {"smiles": "COCc1c(C(=O)NC2CCCCCC2)oc2ccccc12", "growth rescue (activation)": "inactive: 19%"},
      {"smiles": "CCOC(=O)c1c(-c2ccc(C)cc2)csc1NC(=O)c1cc(=O)c2cc(C)ccc2o1", "growth rescue (activation)": "inactive: -12.4%"},
      {"smiles": "C=CCNc1nc(N)c(C(=C(C#N)C#N)c2ccccc2)s1", "growth rescue (activation)": "inactive: 10.3%"},
      {"smiles": "O=C1CC(C(=O)N2CCc3ccccc32)CN1c1ccc(F)cc1", "note": "(stereo not given)", "growth rescue (activation)": "inactive: -19.1%"},
      {"smiles": "NS(=O)(=O)c1ccc2nc(NC(=O)Nc3ccc(F)cc3)sc2c1", "growth rescue (activation)": "inactive: 9.42%"},
      {"smiles": "CCN(CC)C(=O)C(=O)N/N=C/c1cccs1", "growth rescue (activation)": "inactive: 2.38%"},
      {"smiles": "COc1cc(NC(=O)/C=C/c2ccccc2[N+](=O)[O-])cc(OC)c1", "growth rescue (activation)": "inactive: 0.0816%"},
      {"smiles": "O=C(CN(CCO)c1ccccc1)Nc1cccc(S(=O)(=O)N2CCCC2)c1", "growth rescue (activation)": "inactive: -4.64%"},
      {"smiles": "CSc1ccc(Cl)c(C(=O)Nc2ccc(C)cn2)c1", "growth rescue (activation)": "inactive: 22.7%"},
      {"smiles": "O=C(N/N=C/c1ccc(Br)s1)c1cccs1", "growth rescue (activation)": "inactive: -15.9%"},
      {"smiles": "O=C(O)C1=NN(c2ccccc2)C(=O)C1", "growth rescue (activation)": "inactive: 3.34%"},
      {"smiles": "Cc1ccc2c(c1)N(CC(=O)N1CCC(O)CC1)C(=O)CO2", "growth rescue (activation)": "inactive: 2.44%"},
      {"smiles": "O=C(CCc1ccccc1)NNC(=O)Nc1ccccc1", "growth rescue (activation)": "inactive: 2.41%"},
      {"smiles": "CCn1c(SCC(=O)NNC(=S)Nc2ccc(C)cc2)nnc1-c1ccc(Cl)cc1", "growth rescue (activation)": "inactive: 2.29%"},
      {"smiles": "CN(C)CC(O)COc1cccc(OCC(O)CN(C)C)c1", "note": "(stereo not given)", "growth rescue (activation)": "inactive: 19.8%"},
      {"smiles": "N=c1n(CC(=O)c2ccc([N+](=O)[O-])cc2)c2ccccc2n1Cc1ccccc1Cl", "growth rescue (activation)": "inactive: -14.1%"},
      {"smiles": "Cc1cc(C)cc(NC(=O)c2cc(=O)c3ccccc3o2)c1", "growth rescue (activation)": "inactive: 9.03%"},
      {"smiles": "COCCNC(=O)C1CC(=O)N(c2ccc(OC)cc2)C1c1ccc(OC)cc1", "note": "(stereo not given)", "growth rescue (activation)": "inactive: 12.5%"},
      {"smiles": "CCSC1(SCC)N=C(N)C2(C#N)C(c3ccccc3)NC(C)=CC12C#N", "note": "(stereo not given)", "growth rescue (activation)": "inactive: 13.7%"},
      {"smiles": "O=C(NC1CC1)c1ccc(C2SCC(=O)N2Cc2ccccc2)cc1", "note": "(stereo not given)", "growth rescue (activation)": "inactive: -6.75%"},
      {"smiles": "CCc1nc(NCCCn2ccnc2)c2oc3ccccc3c2n1", "growth rescue (activation)": "inactive: -24%"},
      {"smiles": "COc1ccc(-c2cc(NC(C)=O)c3ncc(-c4ccccc4)n3c2)cc1OC", "growth rescue (activation)": "inactive: 3.78%"},
      {"smiles": "COc1ccc(OC)c(CCNC(=O)CN2C(=O)CCSc3ccccc32)c1", "growth rescue (activation)": "inactive: 2.9%"},
      {"smiles": "CCNS(=O)(=O)c1ccc(NC(=O)CC(C)c2ccccc2)cc1", "note": "(stereo not given)", "growth rescue (activation)": "inactive: -15.1%"},
      {"smiles": "COc1cccc(-n2c(Cc3cc(=O)[nH]c(=O)[nH]3)nnc2SCC(=O)N2CCC(C)CC2)c1", "growth rescue (activation)": "inactive: 18%"},
      {"smiles": "O=C(CCSCc1ccccc1)Nc1ccc2c(c1)OCCO2", "growth rescue (activation)": "inactive: 16.9%"},
      {"smiles": "CCOc1ccc(N2CC(C(=O)NC3CCCCCC3)CC2=O)cc1", "note": "(stereo not given)", "growth rescue (activation)": "inactive: 10.6%"},
      {"smiles": "Cc1ccc(S(=O)(=O)N2CC(C(=O)O)Oc3ccccc32)cc1", "note": "(stereo not given)", "growth rescue (activation)": "inactive: 9.7%"},
      {"smiles": "COc1ccccc1CNC(=O)COC(=O)c1ccncc1", "growth rescue (activation)": "inactive: 8.18%"},
      {"smiles": "C=C(C)C1CC=C(C)/C(=N/NC(=O)CCC(=O)Nc2ccccc2Cl)C1", "note": "(stereo not given)", "growth rescue (activation)": "inactive: -24.1%"},
      {"smiles": "CN(C)c1cccc(C(=O)OC(C(=O)Nc2ccc(Cl)cc2C(F)(F)F)c2ccccc2)c1", "note": "(stereo not given)", "growth rescue (activation)": "inactive: 9.24%"},
      {"smiles": "O=C(CN1C(=O)NC2(CCCC2)C1=O)Nc1ccccc1C(F)(F)F", "growth rescue (activation)": "inactive: 8.11%"},
      {"smiles": "CCCn1nc(C(=O)Nc2cc(S(=O)(=O)Nc3ccc(OC)cc3)ccc2O)c2ccccc2c1=O", "growth rescue (activation)": "inactive: 18.8%"},
      {"smiles": "CCc1nc2c(OCc3cccc(Cl)c3)cccn2c1N(C)C(=O)Nc1ccccc1OC", "growth rescue (activation)": "inactive: 11.5%"},
      {"smiles": "Cc1cccc(C(C)C)c1NC(=O)Cn1c(=O)oc2cc(S(=O)(=O)N3CCCC3)ccc21", "growth rescue (activation)": "inactive: 4.15%"},
      {"smiles": "CC(C)c1ccc(OCC(=O)NCCO)cc1", "growth rescue (activation)": "inactive: 11.9%"},
      {"smiles": "CC(=O)N/N=C/c1cc(C(C)(C)C)cc(/C=N/NC(C)=O)c1O", "growth rescue (activation)": "inactive: -21.3%"},
      {"smiles": "O=C(COC(=O)/C=C/c1ccccc1)NCc1ccc(Cl)cc1", "growth rescue (activation)": "inactive: 17.3%"},
      {"smiles": "CCOC(=O)C1=C(O)/C(=C\\c2sccc2C)N=C1C", "growth rescue (activation)": "inactive: 2.29%"},
      {"smiles": "O=C(CN1CCN(c2ccc(O)cc2)CC1)NC(=O)NCc1ccco1", "growth rescue (activation)": "inactive: -5.39%"},
      {"smiles": "CCOc1ccc(/C=N/n2nnnc2N)cc1O", "growth rescue (activation)": "inactive: 20.1%"},
      {"smiles": "COC(=O)c1ccc(C(C(=O)NC2CCCCC2)N(CCc2ccccc2)C(=O)Cc2cccs2)cc1", "note": "(stereo not given)", "growth rescue (activation)": "inactive: 7.66%"},
      {"smiles": "COc1cc(C(=O)Nc2nc3ccccc3[nH]2)ccc1OC(F)F", "growth rescue (activation)": "inactive: -3.4%"},
      {"smiles": "CCOC(=O)CNC(=O)Cn1c(C)cc2ccccc2c1=O", "growth rescue (activation)": "inactive: 29.4%"},
      {"smiles": "COCC(=O)n1nc(-c2ccco2)nc1NCc1ccccc1Cl", "growth rescue (activation)": "inactive: 15.9%"},
      {"smiles": "CN(C)CCCNC(=S)NCC(c1ccc(Cl)cc1Cl)c1c[nH]c2ccccc12", "note": "(stereo not given)", "growth rescue (activation)": "inactive: 18.2%"},
      {"smiles": "O=C(NC1CCC(O)CC1)c1ccc(S(=O)(=O)NCc2ccco2)cc1", "note": "(stereo not given)", "growth rescue (activation)": "inactive: -3.23%"},
      {"smiles": "O=C(O)CC(NC(=O)c1ccncc1)c1ccccc1", "note": "(stereo not given)", "growth rescue (activation)": "inactive: -9.12%"},
      {"smiles": "C=CCc1cccc2cc(-c3nc4ccc(C)cc4[nH]3)c(=O)oc12", "growth rescue (activation)": "inactive: 20.9%"},
      {"smiles": "COc1ccc(CCNC(=O)c2ccc3c(c2)N(Cc2ccc(F)cc2)C(=O)c2ccccc2S3(=O)=O)cc1OC", "growth rescue (activation)": "inactive: 2.01%"}
    ]}
  ]
}
